From PubChem BioAssay AID1508624 (National Center for Advancing Translational Sciences (NCATS), 2021) come the findings set out here.

In all, about 48,000 compounds went through this assay and about 120 (0.25%) were called active. Not shown: some 4% with an inconclusive outcome. Calls follow the shape of the dose curve; as a rule, active = well fitted activation curve with a large enough effect; inconclusive = small, poorly fitted or top-dose-only effect, or another doubt; inactive = no such curve, though single readings can be large or run the other way. Some of the results follow.

The nature of this assay: Primary qHTS for Identification of Small Molecule Activators of Huntingtin-Antisense Promoter Activity. Also: nearly all actives have a fitted effect of over 55% in size. Conditions: HEK293 HTT-AS promoter firefly luciferase reporter (activity 0% = vehicle and -100% = no light), 24 h; series mostly up to 57.5 µM; activity change, positive = activation: at the top concentration. In outline: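 Quantitative HTS used concentration series of up to 57.5 uM final on HEK293 luciferase reporter cells, 24 h at 37 degrees C. Readout was Dual-Glo firefly luminescence.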
On to `CCOc1ccc2nc(N(Cc3cccnc3)C(C)=O)sc2c1`, for which the “activity change, positive = activation” value is inactive: 22.8%.
Turning to `O=C1CC(=O)Nc2cc(S(=O)(=O)Nc3ccc(F)cc3Cl)ccc2N1`, the “activity change, positive = activation” value was inactive: -0.691%.
The result for `Cc1ccc(OCCSc2nc3ccc(NC(=O)c4ccco4)cc3s2)cc1` reads inactive: -19.2%; that for `CN(c1ncccc1CNc1nc(Nc2ccc3c(c2)CC(=O)N3)ncc1C(F)(F)F)S(C)(=O)=O`, inactive: -45.1%.
The result for `CC(=O)N1CCc2cc(S(=O)(=O)NC(Cc3ccccc3)C(=O)NCc3ccccc3Cl)ccc21` (centres undefined) reads inactive: 7.33%; that for `O=C(CCNS(=O)(=O)c1ccc2c(c1)CCN2C(=O)C1CC1)N1CCN(c2cccc(C(F)(F)F)c2)CC1`, inactive: -48.9%.
Turning to `CCCc1ccc(OC(C)c2nc(-c3ccc(-n4cccc4)cc3)no2)cc1` (centres undefined), the “activity change, positive = activation” value was inactive: -20.9%.
The result for `COCc1oc2ccc(NS(=O)(=O)c3ccc(C)cc3)cc2c1C(=O)OC` reads inactive: -35.1%; that for `Cc1cccc2c(=O)cc(CSc3ccccc3NC(=O)C(C)(C)C)[nH]c12`, inactive: -13.9%; that for `COc1ccc(OCc2ccc(-c3nc(C#N)c(NCc4cccnc4)o3)o2)cc1`, inactive: -24.3%.
As to `CCOC(=O)c1cc(S(=O)(=O)NCc2ccc(OC)cc2)[nH]n1`, the “activity change, positive = activation” value was inactive: -17.3%.
With `CCCC(=O)Nc1ccccc1C(=O)OCc1cc(=O)n2nc(C(C)C)sc2n1`, the “activity change, positive = activation” value was inactive: -8.96%.
The result for `CCC(=O)N1CCCc2cc(S(=O)(=O)N3CCC(C(=O)Nc4ccc(C#N)cc4)CC3)ccc21` reads inactive: -9.08%; that for `CC(=O)c1cccc(NC(=O)Cn2cc(C(=O)c3cccc(Cl)c3)c(=O)c3ccc(C)nc32)c1`, inactive: -23.5%.
Consider `COc1ccc(OC)c(S(=O)(=O)N2CCN(Cc3nc4ccc(C)cc4o3)CC2)c1`, for which the “activity change, positive = activation” value was inactive: -6.34%.
The result for `CCN(C(=O)Cn1c(=O)n(Cc2ccc3c(c2)OCO3)c(=O)c2ccc(C(=O)NC3CCCCC3)cc21)c1cccc(C)c1` reads inactive: -23.7%.
`Cc1cc(C)cc(NC(=O)N2CCN(C(=O)c3nsc4ccccc34)CC2)c1`: the “activity change, positive = activation” value is inactive: -18.7%.
On to `COC(=O)c1ccc(-n2c(/C=C/c3cc(OC)c(OC)c(OC)c3)nc3cc(Cl)ccc3c2=O)cc1`, for which the “activity change, positive = activation” value was inactive: -12.6%.
In the case of `COc1ccc(N2CCN(CCCNC(=O)c3ccc4nc(Cc5ccccc5)oc4c3)CC2)cc1`, the “activity change, positive = activation” value is inactive: -26.2%.
The result for `CCOc1ccc(CNC(=O)C2CCCN(c3nn4cc(-c5ccc(F)cc5)nc4s3)C2)cc1` (centres undefined) reads inactive: -62.3%.
The result for `COc1ccc(-n2c(=O)c3c(c4cc(OC)ccc4n3C)n(CC(=O)N3CCCC3)c2=O)cc1` reads inactive: -8.84%; that for `CCc1ccc(NC(=O)CCCc2nnc3n(CCCOC)c(=O)c4sccc4n23)cc1`, inactive: 0.483%.
On to `Cc1ccc(NC(=O)C(C)Sc2nc3c(c(=O)[nH]2)CCCC3)cc1Cl` (centres undefined), for which the “activity change, positive = activation” value was inactive: -8.72%.
In the case of `CSc1cccc(NC(=O)CN2C(=O)CCc3cc(S(=O)(=O)N4CCCCC4)ccc32)c1`, the “activity change, positive = activation” value is inactive: -38.9%.
Take `CCOc1ccccc1NC(=O)CSc1ccc2nc(-c3ccccc3)cn2n1`: the “activity change, positive = activation” value is inactive: -74.7%.
With `CCOc1ccc(/C=C/c2nc(C#N)c(NCCCN(C)C)o2)cc1`, the “activity change, positive = activation” value was inactive: -15.7%.
As for `CCc1ccc2oc(-c3ccc(NC(=O)c4cccc(Cl)c4Cl)cc3)nc2c1`, the “activity change, positive = activation” value was inactive: -7.18%.
Under `O=C(Cn1cnc2c(nc3n2CCCCC3)c1=O)Nc1cccc(C(F)(F)F)c1` stands inactive: -9.11%.
The result for `COC(=O)c1ccccc1NC(=O)Cn1c(=O)n(CCCC(=O)NCc2ccccc2Cl)c(=O)c2ccccc21` reads inactive: -6.8%; that for `O=C(COc1ccccc1Cl)N(Cc1cccc(F)c1)C1CCS(=O)(=O)C1` (centres undefined), inactive: -12.2%; that for `CCOC(=O)C1CCN(C(=O)CSc2n[nH]c(-c3ccc(OC)cc3)n2)CC1`, inactive: -4.81%.
The result for `Cn1c(=O)n(C)c2cc(N3CCOCC3)c(NS(=O)(=O)c3ccc(Cl)cc3)cc21` reads inactive: -13.3%; that for `Cc1ccc(-n2c(=O)c3c(cnn3C)n(CC(=O)Nc3cccc(C)c3)c2=O)cc1`, inactive: -5.21%.
For the compound `COc1ccccc1N1CCN(C(=O)c2cc3c(-c4ccccc4F)nn(C)c3s2)CC1`, the “activity change, positive = activation” value was inactive: -38%.
Consider `Cc1cc(=O)n(Cc2c(F)cccc2Cl)c2c1c(C)nn2C`, for which the “activity change, positive = activation” value was inactive: -22%.
The result for `CCOC(=O)Cn1c(CN2CCN(c3ccc(OC)cc3)CC2)nc2c1c(=O)[nH]c(=O)n2C` reads inactive: -7.09%; that for `COc1ccc(CCNC(=O)Cn2c(-c3ccc(F)cc3)cc(C(C)=O)c2C)cc1OC`, inactive: -24.2%; that for `COc1ccc2c(c1)CC(C(=O)NCCc1ccc(S(N)(=O)=O)cc1)CO2` (centres undefined), inactive: -9.05%.
On to `Cc1ccc(C)c(OC(=O)CSc2nnc(-c3cccs3)o2)c1`, for which the “activity change, positive = activation” value was inactive: -4.04%.
Consider `COc1cc2ccccc2cc1C(=O)N1CCN(c2nc3c(F)cc(F)cc3s2)CC1`, for which the “activity change, positive = activation” value is inactive: -27.4%.
For the compound `CCCC(=O)Nc1cc(-c2nnc3c4ccccc4c(C)nn23)ccc1C`, the “activity change, positive = activation” value is inactive: 1.29%.
On to `CC1=C(C(=O)Nc2cccnc2)C(c2ccccc2Cl)n2nc(-c3ccccc3)nc2N1` (centres undefined), for which the “activity change, positive = activation” value is inactive: -12.4%.
`Cc1cc(NC(=O)CSc2ncc(C(=O)Nc3ccc(C)c(C)c3)c(=O)n2C)no1`: the “activity change, positive = activation” value is inactive: 11%.
`Cc1ccc(NC(=O)CCSc2nc(-c3ccc4c(c3)OCO4)cc(C(F)(F)F)n2)c(C)c1`: the “activity change, positive = activation” value is inactive: -8.1%.
The result for `CCOc1ccccc1C(=O)NCc1ccc2c(c1)CCN2C(=O)c1ccccc1` reads inactive: -41%; that for `CS(=O)(=O)c1ncc(Cl)c(C(=O)Nc2c(C(=O)c3ccc(Cl)cc3)oc3ccccc23)n1`, inactive: -24.3%.
For the compound `COc1ccc(CCNC(=O)c2ccc(Cn3c(SCC(=O)NCCC(C)C)nc4cc5c(cc4c3=O)OCO5)cc2)cc1OC`, the “activity change, positive = activation” value was inactive: -9.71%.
Under `Clc1cccc(-n2ncc3c(NCCCN4CCOCC4)ncnc32)c1` stands inactive: 2.79%.
For `Cc1ccc2nc(CN3CCN(S(=O)(=O)c4ccc(C)c(C)c4)CC3)oc2c1`, the “activity change, positive = activation” value is inactive: -5.44%.
The result for `O=C(Nc1ccc2oc(-c3ccc4ccccc4c3)nc2c1)c1cc(Cl)ccc1Cl` reads inactive: -24.3%; that for `CC(=O)c1c(C)n(-c2ccc(C)cc2)c2ccc(OC(=O)COc3ccccc3)cc12`, inactive: -32.5%.
The result for `Cc1ccc(C2CC(=O)n3nc(-c4cccc(C)c4)nc3S2)cc1` (centres undefined) reads inactive: 0.55%; that for `CN(C)c1ccc(CNC(=O)C2CCN(S(=O)(=O)c3ccc4[nH]c(=O)ccc4c3)CC2)cc1`, inactive: -10.1%.
Under `CC(C)C(=O)Nc1nnc(SCc2cc(=O)n3ccccc3n2)s1` stands inactive: -15.1%.
`COc1cc(-c2ccno2)ccc1S(=O)(=O)N1CCN(c2ccccc2)CC1`: the “activity change, positive = activation” value is inactive: -19.8%.
`Cc1ccc(Cc2nc3ccccc3nc2SCC(=O)NCc2ccccc2Cl)cc1`: the “activity change, positive = activation” value is inactive: -7.86%.
Under `CCOC(=O)c1c(NC(=O)COc2ccc(C(C)(C)C)cc2)sc2c1CCCC2` stands inactive: 3.11%.
Take `CCc1cccc(CC)c1NC(=O)Cn1nnc2sc3c(c2c1=O)CCCC3`: the “activity change, positive = activation” value is inactive: -17.5%.
In the case of `Cc1ccc(NC(=O)c2c(C)nn(-c3ccccc3)c2-n2cccc2)c(Cl)c1`, the “activity change, positive = activation” value was inactive: -21.9%.
